The record followed here is PubChem BioAssay AID1745853 (National Center for Advancing Translational Sciences (NCATS), 2022).

“And” between values parts separate entries of the source, which are not always exact repeats. Identical values can stand only once. The list shows a part of the results. The main result of the screen is listed elsewhere. These columns were measured beside it and carry no call.

Assay in all cases: Primary Screen for Target Class Profiling of Small Molecule Inhibitors of Methyltransferases
In test [1] the target is Glycine N-methyltransferase (Homo sapiens) (UniProt Q14749). The following applies: purified enzyme, MTase-Glo SAH luminescence; measured here: GNMT inhibition; at 40 µM; stronger effect = lower value. The gist of the method: (§1)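 Each enzyme was reacted with SAM and its substrate, with compounds tested once at 40 uM; SAH formed was read by MTase-Glo luminescence.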
The target in test [2] is Guanidinoacetate N-methyltransferase (Homo sapiens) (UniProt Q14353). The note with it: purified enzyme, MTase-Glo SAH luminescence; measured here: GAMT inhibition; at 40 µM; stronger effect = lower value. The gist of the method: as §1
Test [3] addresses Histamine N-methyltransferase (Homo sapiens) (UniProt P50135). The following applies: purified enzyme, MTase-Glo SAH luminescence; measured here: HNMT inhibition; at 40 µM; stronger effect = lower value. The gist of the method: as §1
Test [4] concerns the target Nicotinamide N-methyltransferase (Homo sapiens) (UniProt P40261). The following applies: purified enzyme, MTase-Glo SAH luminescence; measured here: NNMT inhibition; at 40 µM; stronger effect = lower value. The gist of the method: as §1
The target of test [5] is Phenylethanolamine N-methyltransferase (Homo sapiens) (UniProt P11086). The note with it: purified enzyme, MTase-Glo SAH luminescence; measured here: PNMT inhibition; at 40 µM; stronger effect = lower value. The gist of the method:
as §1
On the % scale 0 is the no-effect control and ±100 the full control effect.

For `COc1ccc(-c2nnc3n(Cc4ccc(F)cc4)c(=O)c4ccccc4n23)c(O)c1`, the activity change, negative = inhibition in test [1] was -14.3%; in test [2], 3.2%; in test [3], 7.18%; in test [4] it was 6.77%; in test [5], 2.76%.
The matching figures for `Cc1ccc(Cn2c(=O)c3ccccc3n3c(CCC(=O)NCCCN4CCC(C)CC4)nnc23)cc1`: -3.04%, 0%, -37%, 10.1% and 0.526%.
The matching figures for `CC1CCN(CC2CCCN(C(=O)NC3CCCCC3)CC2)CC1` (stereo not given): -2.05%, -2.16%, -3.93%, -2.42% and -4.28%.
`Cc1ccccc1CCNC(=O)CNC(=O)C1(C)Cn2c(cc3ccccc32)C(=O)N1C` (stereo not given): the activity change, negative = inhibition in test [1] was -1.43%; in test [2], 0%; in test [3] it was 1.56%; in test [4] it was -1.88%; in test [5] it was -1.25%.
The matching figures for `Cc1noc(C)c1S(=O)(=O)N1C[C@@H](Oc2cccnc2)C[C@H]1C(N)=O`: -2.68%, 0.854%, -0.645%, -4.62% and 7.17%.
For `O=C(c1ccncc1)N1CCCC(Cc2noc(-c3cnccn3)n2)C1` (stereo not given) the same measures were -0.861%, 1.42%, 0.551%, 0.069% and 15.8%.
`CSc1ccc(CNC(=O)c2cc3n(n2)CC(C)(C(=O)NCc2ccccc2)N(C)C3=O)cc1` (stereo not given): the activity change, negative = inhibition in test [1] was 0.525%; in test [2], 6.89%; in test [3], 5.09%; in test [4], -1.73%; in test [5], -0.643%.
With `CCOc1ccc(CCNC(=O)C(CC)n2ccc3cc(S(=O)(=O)N4CCCCC4)ccc32)cc1` (stereo not given), the activity change, negative = inhibition in test [1] stood at 2.51%; in test [2] it was 0.405%; in test [3], 0.59%; in test [4], 4.88%; in test [5], 0.221%.
On to `COc1cccc(CSc2nnc3n(CC(C)C)c(=O)c4ccccc4n23)c1`, for which the activity change, negative = inhibition in test [1] is -1.97%; in test [2], 0.627%; in test [3], 6.17%; in test [4], -8.66%; in test [5] it was 3.78%.
Consider `Cc1ccc(NC2=CC(=O)c3sc(C)nc3C2=O)cc1`, for which the activity change, negative = inhibition in test [1] is -77.3%; in test [2] it was -95.7%; in test [3] it was -11.6%; in test [4], -33.9% and -72.2%; in test [5], -42.1%.
For the compound `CN1C(=O)c2cc(C(=O)NCc3cccc(Cl)c3)nn2CC1(C)C(=O)NC1CCCCCC1` (stereo not given), the activity change, negative = inhibition in test [1] stood at 4.95%; in test [2] it was 1.84%; in test [3] it was 8.87%; in test [4], 7.18%; in test [5], 2.94%.
For `CC1(C)CC(NC(=O)C(=O)Nc2ccc(Br)cc2)CC(C)(C)N1` the same measures were 0.377%, 4.03%, 8.93%, -9.53% and 3.85%.
As to `COc1ccc(Cl)cc1N1C(=O)c2cc3sccc3n2CC1(C)C(=O)NC1CCCCCC1` (stereo not given), the activity change, negative = inhibition in test [1] was 1.17%; in test [2], 0%; in test [3], 6.25%; in test [4] it was 6.74%; in test [5], -0.348%.
For the compound `CC(C)n1c(=O)c2ccc(C(=O)NC3CCCC3)cc2n2c(=O)n(CC(=O)NC3CCCCC3)nc12`, the activity change, negative = inhibition in test [1] is 6.05%; in test [2] it was 2.08%; in test [3] it was -0.481%; in test [4], -10.1%; in test [5] it was -6.33%.
On to `CCOc1ccc(CN2C(=O)c3cc4sc(CC)cc4n3CC2(C)C(=O)NC2CCCCC2)cc1` (stereo not given), for which the activity change, negative = inhibition in test [1] was determined as 3.75%; in test [2], 2.41%; in test [3], 8.16%; in test [4] it was 9.04%; in test [5], 2.82%.
With `Cc1ccccc1NC(=O)N1Cc2c(sc3c2CCCC3)-n2cccc2C1c1ccccc1` (stereo not given), the activity change, negative = inhibition is -2.52% in test [1]; 0% in test [2]; 4.35% in test [3]; 1.48% in test [4]; 4.24% in test [5].
The matching figures for `COc1ccc(-c2ccccc2)cc1NS(=O)(=O)c1cc(Cl)cc(Cl)c1O`: -14.7%, -7.18%, 1.14%, -31.3% and 0.37%.
Consider `COc1ccc(S(=O)(=O)N2CCCCC2c2nc(C3CC3)n[nH]2)cc1` (stereo not given), for which the activity change, negative = inhibition in test [1] was 7.91%; in test [2], 0.766%; in test [3], 2.52%; in test [4], 1.55%; in test [5] it was 3.65%.
As for `CO[C@]1(NC(=O)CSC(F)F)C(=O)N2C(C(=O)O)=C(CSc3nnnn3CCO)CO[C@H]21`, the activity change, negative = inhibition in test [1] is -2.79%; in test [2], -4.55%; in test [3] it was 10.7%; in test [4], -11%; in test [5] it was 2.67%.
